Sequences and labels used below:
B1: CPEB3 Ribozyme (parent)
chain: UAACAGGGGGCCACAGCAGAAGCGUUCACGUCGCAGCCCCUGUCAGAUUCUGGUGAAUCUGCGAAUUCUGCUGUAUAUCUC

The source gives no read counts; variants with many changes may rest on few reads.

This passage reports self-cleavage results from the RNAGym collection of RNA variant scans (doi:10.1093/nar/gkz1192).

The variants in the series derive from B1. Nature of the series: self-cleavage, relative activity (ratio to wild type); higher = more cleavage; in vitro, sequencing. The method in brief: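 Relative activity compares each variant's cleaved/total read fraction with that of the unmutated ribozyme. To get these fractions, barcoded CPEB3 ribozyme libraries from rounds of error-prone PCR were transcribed with T7 RNA polymerase for 5 hours at 37°C and then given 15 min of DNase I treatment before EDTA was added. The RNAs were reverse transcribed with template switching and sequenced on Illumina, and DNA sequencing linked barcodes to variants. A minimum of 5 reads applied, and three batches were averaged.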
With UAACAGGGGGCCACGGCAGUAGCGUUCACGUCGCAGCCCCAGUCAGACUCUGGUGAAUCUGCGAAUUCUGCUGUAUAUCUC [A15G A20U U41A U48C], the self-cleavage amounted to 0.13.

With UAACAGGGGGCCACGGCUGGAGCGUUCACGUCGCAGCCCCUGUCAGAUUCUGGUGGAUCUGCGAAUCCUGCUGUAUAUCUC [A15G A18U A20G A56G U67C], the self-cleavage was 0.05.

Regarding UAACAGGGGGCCACGGCGGAAGCGUUCACGUCGCAGCCCCAGUCAGAUUCUGGUGAAUCCGCGAAUCCUGCUGUAUAUCUC [A15G A18G U41A U60C U67C], the self-cleavage is 0.08.

UAACAGGGGGCCACGGCGGAAGCGUUCACGUCGCAGCCCCUGUCAGAUUCUGGUGAAUCUGCGGAUUCUGCUGUAUACCUC [A15G A18G A64G U78C]: the self-cleavage came out at 0.39.

For UAACAGGGGGCCACGGCGGAUGCGUUCACGUCGCAGCCCCUGUCAGAUUCUGGUGAAUGCGCGAAUUCUGCUGUAUAUCUC [A15G A18G A21U C59G U60C], the self-cleavage amounted to 0.36.

As for UAACAGGGGGCCACGGCGGAAGCGUUCACGUCGCAGCCCCCGUCAGAUACUGGUGAAUCUGCGAAUUCUGCUGUAUAUCUC [A15G A18G U41C U49A], the self-cleavage was 0.03.

For UAACAGGGGGCCACGGCAGGAACGUUCACGUCGCUGCCCCUGUCAGAUUCUGGUGAAUCUGCGAAUUCAGCUGUAUAUCUC [A15G A20G G22A A35U U69A], the self-cleavage was 0.19.

As to UAACAGGGGGCCACGGCAGGAGCGUUCGCGUCGCAGCCCCUGUCAGAUUCUGGUGAGUCUGCGAAUUCUGCGGUAUAUCUC [A15G A20G A28G A57G U72G], the self-cleavage is 0.

As to UAACAGGGGGCCACGGCUGAAGCGUCCACGUCGCAGCCCCUGUCAGAUUCUGGUGUAUCUGCGAAUUCUGCCGCAUAUCUC [A15G A18U U26C A56U U72C U74C], the self-cleavage worked out at 0.15.

Turning to UAACAGGGGGCCACGGCGGAAGCGCUCACGUCGCAGCCCCUGUCAGAUUCUGGUGAAUCUGCGUAUUCUGCUGUGUGUCUC [A15G A18G U25C A64U A75G A77G], the self-cleavage was determined as 0.

UAACAGGGGGCCACGGCAGUAGCGUUCACGUCGCAGCCUCUGUCAGAUCCUGGUGUAUCUGCGAAUUCUGCUGUACAUCUC [A15G A20U C39U U49C A56U U76C]: the self-cleavage turned out to be 0.05.

UAACAGGGGGCCACGGCUGAAGCGUUCACGUCGCAGCCCCUGUCAGGUUCUGGUGAAUCUGCGAAUUCUGCUGUAUAUCUC [A15G A18U A47G]: the self-cleavage was 0.37.

As to UAACAGGGGGCCACGGCAGGACCGCUCACGUCGCAGCCCCUGUCAGAUUCAGGCGAAUCUGCGAAUUCUGCUGUAUAUCUC [A15G A20G G22C U25C U51A U54C], the self-cleavage was determined as 0.26.

In the case of UAACAGGGGGCCACGGCGGAAGCGUUCACGUCGCUGCCCCUGUCAGAUUCUGGUGAGUCUGCGAAUUCUGCUGUAUAUCUC [A15G A18G A35U A57G], the self-cleavage came to 0.18.

With UAACAGGGGGCCACGGCAGAUGCGUUCACGUCGCAGCCCCUGUCAGAUUCUGGUGAAUCUGCGAGUUCUGCUGUAUAUCUC [A15G A21U A65G], the self-cleavage came to 0.14.

Consider UAACAGGGGGCCACGGCAGAUGCGUUCACGUCGCAGCCCCUGCCAGGUUCUGGUGGAUCUGGGAAUUCUGCUGUAUAUCUC [A15G A21U U43C A47G A56G C62G], for which the self-cleavage was found to be 0.04.

Regarding UAACAGGGGGCCACGGCAGAGGCGUCCACGUCGCAGCCCCUGUCAGAUUCUGGUGAAUCUGCGAAUUCUGCAGUAUAUCAC [A15G A21G U26C U72A U80A], the self-cleavage is 0.36.

Regarding UAACAGGGGGCCACGGCGGAAGCGUUCACGUCGCAGCCCCUGUCAGAAUCUGGUGAAUCUGCGAAUUCUGCUGUAUAUCUC [A15G A18G U48A], the self-cleavage stood at 0.08.

As for UAACAGGGGGCCACGGCGGAAGCGUUCACGUCGCAGCCCCUGUCAGAUUCUGGUGAAUCUGCGAAUUCUGCUGUAUAUCAC [A15G A18G U80A], the self-cleavage was determined as 0.33.

In the case of UAACAGGGGGCCACGGCGGAAGCGUUCACGUCGCUGCCCCUGUCAGACUCUGGUGACUCUACGUAUUCUGCUGUAUAUCUC [A15G A18G A35U U48C A57C G61A A64U], the self-cleavage came to 0.11.

Regarding UAACAGGGGGCCACGGCAGUAGCGUUCACGUCGCAGCCCCUGUCAGAUUCUGGUGAAUCAGCGAAUUCUGCUGUAUAUCUC [A15G A20U U60A], the self-cleavage amounted to 0.36.

Take UAACAGGGGGCCACGGCAGACGCGUUCGCGUCGCGGCCCCAGUCAGAUUCUGGUGAAUCUGCGAAUUCUGCUGUAUAUCUC [A15G A21C A28G A35G U41A]: the self-cleavage was 0.39.

Regarding UAACAGGGGGCCACGGCGGAAGCGUUCACGUCGGAGCCCCUGUCAGAUUCUGGAGAAUCUGCGAAUUCUGCUGUAUAGCUC [A15G A18G C34G U54A U78G], the self-cleavage came to 0.38.

Regarding UAACAGGGGGCCACGGCUGAAGCGUUCACGUCGCAGCCCCUGUCAGAUUCUGGUGAAACUGCGAAUUCUGCUGUAUAUCUC [A15G A18U U58A], the self-cleavage is 0.29.

With UAACAGGGGGCCACGGCCGAAGCGUUCACGUCGCAGCCCCUGACAGACUCUGGUGAAACUGCGAAUUCUGCUGUAUAUCUC [A15G A18C U43A U48C U58A], the self-cleavage is 0.11.

In the case of UAACAGGGGGCCACGGCGGAAGCGUUCACGUCGCAGCCCCUGUCAGGUUCUGGUAAAUCUGCGAAUUCUGCUGUAUAUCUC [A15G A18G A47G G55A], the self-cleavage worked out at 0.13.

Consider UAACAGGGGGCCACGGCAGAUGCGUUCACGUCCCAGCCCCUGUCAGAUUCUGGUGAAUCUGCGAAUUUUGCUGUAUAUCUC [A15G A21U G33C C68U], for which the self-cleavage stood at 0.18.

For UAACAGGGGGCCACGGCUGAAGCGUUCACGUCGCGGCCCCUGUCAGAUUCUGGUGAAUCUGCGAAUCCUGCUGUAUAUCUC [A15G A18U A35G U67C], the self-cleavage worked out at 0.08.

Take UAACAGGGGGCCACGGCUGAAGCGUUAACGUCGCAGCCCCUGUCAGACUCUGGUGAAGCUGCGAACUCUGCUGUAUAUCUC [A15G A18U C27A U48C U58G U66C]: the self-cleavage came out at 0.04.

In the case of UAACAGGGGGCCACGGCAGGAGCGUUCACGUCGCAGCCCCUGUCAGAUUCUAGUGAAUCUGCGAAUUCUGCUGUAUAUCUC [A15G A20G G52A], the self-cleavage stood at 0.42.

Consider UAACAGGGGGCCACGGCAGAGGCGUUCACGUCGCAGCCCCUGUCUGAUCCUGGUGAAUCUGCGAAUUCCGCUGUAUAUCUC [A15G A21G A45U U49C U69C], for which the self-cleavage is 0.05.

Take UAACAGGGGGCCACGGCAGCAGCGUUCACGUCGCAGCCCCUGUUAGAUUCUGGUGAAUCUGCGAAUUCUGCUGUAUAUCUC [A15G A20C C44U]: the self-cleavage came to 0.09.

With UAACAGGGGGCCACGGCGGAAGCGUUCACGUCGCAACCCCUGUCAGAUUCUGGUGAAUCUGCGAAUUCUGCUGUAUAUCUC [A15G A18G G36A], the self-cleavage is 0.07.

As to UAACAGGGGGCCACGGCUGAAGCGUUCACGUCGCAGCCCCUGUCAGAUUCUGGUGAAUCUGCGAAUUCUGCUGUACAUCUC [A15G A18U U76C], the self-cleavage stood at 0.16.
